In PubChem BioAssay AID488969 (Vanderbilt High Throughput Screening Facility, 2010):
The full ranking holds about 110,000 compounds; the median of “z-score” is about -0.1, and the highest 2% start at about 2. The list shows a part of the results.

What follows are molecules tested against Metabotropic glutamate receptor 8 (Rattus norvegicus) (UniProt P70579) (assay: rat mGluR8 modulators via GIRK flux, primary screen, cell-based, thallium flux, HTS (AID 488969)). Settings: HEK293 rat mGluR8, GIRK (G protein-gated inwardly rectifying potassium channel) thallium flux, FluoZin2; at 10 µM; stronger effect = higher value; submaximal glutamate (EC20) added with thallium.
Chain of UniProt P70579 (P70579 whole entry, looked up): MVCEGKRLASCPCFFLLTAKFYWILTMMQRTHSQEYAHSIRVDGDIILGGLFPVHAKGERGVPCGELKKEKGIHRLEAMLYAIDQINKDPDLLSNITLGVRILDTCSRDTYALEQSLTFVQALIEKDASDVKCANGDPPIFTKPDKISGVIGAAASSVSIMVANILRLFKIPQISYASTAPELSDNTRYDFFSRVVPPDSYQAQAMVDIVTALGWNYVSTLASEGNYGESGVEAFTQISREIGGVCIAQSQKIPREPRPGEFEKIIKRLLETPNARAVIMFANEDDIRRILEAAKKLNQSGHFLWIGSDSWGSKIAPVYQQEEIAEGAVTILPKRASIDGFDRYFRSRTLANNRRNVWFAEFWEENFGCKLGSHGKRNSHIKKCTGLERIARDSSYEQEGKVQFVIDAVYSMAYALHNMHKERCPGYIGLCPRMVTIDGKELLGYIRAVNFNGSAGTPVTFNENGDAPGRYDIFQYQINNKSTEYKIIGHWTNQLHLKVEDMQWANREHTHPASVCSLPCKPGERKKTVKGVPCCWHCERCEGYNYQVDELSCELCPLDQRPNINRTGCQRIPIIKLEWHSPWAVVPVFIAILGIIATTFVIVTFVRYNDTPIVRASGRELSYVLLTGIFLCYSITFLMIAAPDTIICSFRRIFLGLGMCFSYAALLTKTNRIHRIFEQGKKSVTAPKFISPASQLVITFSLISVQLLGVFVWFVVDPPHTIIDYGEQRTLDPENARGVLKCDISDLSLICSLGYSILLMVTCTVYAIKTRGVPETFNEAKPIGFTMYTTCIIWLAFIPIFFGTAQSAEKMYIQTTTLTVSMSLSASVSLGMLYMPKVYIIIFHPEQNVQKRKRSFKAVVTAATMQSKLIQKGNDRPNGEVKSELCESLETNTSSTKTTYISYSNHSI
For CC(=O)c1c(O)cc(C)n(Nc2nc(C)cc(C)n2)c1=O, the z-score was -0.103.
Work on CCc1ccc(-n2c(O)c(C=NCCN(CC)CC)c(=O)[nH]c2=O)cc1 yielded a z-score of -0.174.
In the case of CCC(CC)C(=O)NC12CC3CC(CC(C3)C1)C2, the z-score was -0.274.
For Cc1cc(NC(=O)CSc2nc3sc(C)c(C)c3c(=O)n2C2CCCC2)no1, the z-score was 0.0759.
Work on CCOCC(=O)Nc1nnc(COCC)s1 yielded a z-score of 0.935.
With Cc1cc(C)n2ncc(C(=O)NCc3cccnc3)c2n1 the z-score was 1.28.
O=C(CN1CCC(N2CCCCC2)CC1)N1CCCc2ccccc21 gave a z-score of -0.0225.
For O=C(Cc1ccc(-n2c(=O)[nH]c3ccccc3c2=O)cc1)N1CCN(c2cccc(Cl)c2)CC1, the z-score was 0.0665.
COc1ccccc1N1CCN(c2cc(N3CCCC3)nc(C)n2)CC1 gave a z-score of -1.03.
O=C(Nc1ccccc1)/C(=C\c1ccc2c(c1)OCO2)NC(=O)c1ccco1 showed a z-score of -0.0407.
With Cc1nn(-c2ccc([N+](=O)[O-])cc2)c2c1C(c1cccc(Br)c1)N1C(=N2)C(=O)Nc2ccccc21 (stereo not drawn) the z-score was -0.118.
In the case of O=C(Nc1cccc(Cl)c1N1CCCC1)c1cc2ccccc2o1, the z-score was 0.0526.
For COCCCNc1nc2c(c(=O)n(C)c(=O)n2C)n1Cc1cccc(OC)c1, the z-score was -0.0153.
Molecule N/C(Cc1ccc(Cl)cc1Cl)=N\OC(=O)Cc1ccccc1 has a z-score of 0.0368.
With Cc1cccc(Cn2ncc(Cl)c(Cl)c2=O)c1 the z-score was -0.219.
CC(C)(C)C1CC=C2C(C#N)=C(N)C(C#N)(C#N)C(c3cccs3)C2C1 (stereo not drawn) was tested, and the z-score was 0.0392.
Molecule Cc1cc(C)c(-c2csc(NC(=O)/C=C/c3cccs3)n2)c(C)c1 has a z-score of 0.751.
In the case of Cc1ccc(N2C(=O)C3N=NN(CC(=O)N4N=C(c5cccc6ccccc56)CC4c4ccccc4)C3C2=O)cc1 (stereo not drawn), the z-score was 0.269.
Cn1c(Cn2nnc3ccccc32)nnc1SCC(=O)N1c2ccccc2CCc2ccccc21 was tested, and the z-score was -0.396.
COc1ccccc1N1CCN(C(=O)C2CCN(S(=O)(=O)c3ccccc3)CC2)CC1 showed a z-score of -0.5.
Cc1ccc(S(=O)(=O)N(C)CCCC(=O)Nc2cccc3ccccc23)cc1 showed a z-score of -0.456.
For COc1cc(C2C(C(=O)OC(C)C)=C(C)Nc3[nH]c(=O)[nH]c(=O)c32)ccc1O (stereo not drawn), the z-score was -0.0345.
In the case of CCOC(=O)c1cc(NC(=O)COc2ccc([N+](=O)[O-])cc2)cc(C(=O)OCC)c1, the z-score was -0.0752.
CCC(=O)N(Cc1cc2cc(OC)ccc2[nH]c1=O)c1ccccc1C gave a z-score of -0.0448.
Work on CCc1ccc(-c2nc(CSCC(=O)N3CCN(c4ccccn4)CC3)c(C)o2)cc1 yielded a z-score of -1.53.
COC(=O)C(CC(C)C)NC(=O)/C=C/c1ccccc1Cl (stereo not drawn) was tested, and the z-score was 1.32.
For COc1ccc2oc(C(F)(F)C(F)(F)F)cc(=O)c2c1, the z-score was -0.09.
With COC(=O)c1nn(-c2ccccc2)c(-c2ccccc2)c1C(=O)c1ccccc1 the z-score was -0.523.
In the case of Cc1ccc(SCc2[nH]nc3c2C(c2ccco2)C(C#N)=C(N)O3)cc1 (stereo not drawn), the z-score was -0.0516.
CC(/C=N/Nc1nnc(C)c(=O)[nH]1)=C\c1ccccc1 showed a z-score of 0.334.
With O=C(CN1CCCCC1)N1c2ccccc2Sc2ccc(C(F)(F)F)cc21 the z-score was 0.37.
With COc1cccc(C=Nc2ccccc2C#N)c1O the z-score was -0.48.
Molecule Cc1ccc(NC(=O)CCC(=O)NNS(=O)(=O)c2ccccc2)c(C)c1 has a z-score of -0.19.
For CCOC(=O)c1cnn(-c2ccccc2)c1-n1cccc1C(=O)C(=O)Nc1ccccc1, the z-score was -0.123.
Molecule O=C(NCc1cccs1)c1ccc(N2CCCCC2)nc1 has a z-score of -0.0683.
COc1ccc(-c2noc(CSc3nc4ccccc4c(=O)n3-c3ccccc3)n2)cc1 was tested, and the z-score was 0.0539.
N#CC(c1ccccc1)N(CCCCl)C(=O)c1ccc(Br)cc1 (stereo not drawn) gave a z-score of -0.943.
With N#Cc1cccc(NC(=O)CCn2ccnc2)c1 the z-score was -0.0613.
Molecule Cc1ccc2[nH]c3c(c2c1)CCCC3=O has a z-score of -0.217.
Cc1ccc(NC(=O)N2CCC(=O)N2)cc1 was tested, and the z-score was -0.134.
O=c1[nH]c2ccc(S(=O)(=O)Nc3ccc(-c4nnc5n4CCCCC5)cc3)cc2o1 was tested, and the z-score was 0.32.
With CN(CC(=O)Nc1cccc2c1CCCC2)S(=O)(=O)c1ccc(Br)cc1 the z-score was 0.0643.
Cn1c(=O)oc2cc(S(=O)(=O)N3CCC(C(=O)N4CCc5ccccc5C4)CC3)ccc21 showed a z-score of -0.202.
For O=C(c1ccco1)N1CCN(/C(=N/S(=O)(=O)c2cccs2)c2ccccc2Cl)CC1, the z-score was -0.366.
In the case of N/C(=N\OC(=O)c1cccc(Br)c1)c1ccccc1, the z-score was -0.149.
CCOCCOC(=O)C1=C(C)NC2=C(C(=O)CC(c3cccs3)C2)C1c1ccsc1 (stereo not drawn) gave a z-score of -0.338.
For CC(=O)Nc1c(C(=O)c2ccccc2)oc2ccccc12, the z-score was -1.06.
In the case of O=C(O)CCCC(=O)Nc1cccc2cccnc12, the z-score was 0.291.
For O=C(CN1C(=O)c2ccccc2C1=O)NN1C(=O)c2ccccc2C1=O, the z-score was -0.0861.
O=C(CSc1cccc[n+]1[O-])Nc1cc(S(=O)(=O)N2CCOCC2)ccc1Cl gave a z-score of -0.237.
CCCSc1nc(N2CCCC2)c2c(c1C#N)CC(C)(C)OC2 was tested, and the z-score was 0.643.
Cc1ccc(C(=O)NCCNc2ccc(Cl)cc2[N+](=O)[O-])o1 gave a z-score of -0.083.
Molecule O=C(NC1CCCCCCC1)C1CCN(c2nc3ccccc3o2)CC1 has a z-score of -0.284.
Work on Cc1sc2ncnc(SCC(=O)c3ccc(Cl)s3)c2c1C yielded a z-score of 1.06.
NC1=NC(=O)/C(=C\C=C\c2ccccc2)S1 gave a z-score of -0.284.
In the case of COc1ccc(Cn2nnnc2C(c2cc3ccc(OC)cc3[nH]c2=O)N2CCCCCC2)cc1 (stereo not drawn), the z-score was 0.352.
CCOC(=O)c1c(-c2ccccc2)csc1NC(=S)NC(=O)c1ccccc1 gave a z-score of 1.06.
Molecule COc1ccc(C2C(C#N)=C(N)OC3=C2C(=O)CC(C)(C)C3)c([N+](=O)[O-])c1OC (stereo not drawn) has a z-score of 0.0302.
In the case of COc1ccc(OCCCC(=O)Nc2cc([N+](=O)[O-])ccc2C)cc1, the z-score was 0.716.
Work on CCOC(=O)N1CCN(C(=O)c2ccc(-n3c(C)ccc3C)cc2)CC1 yielded a z-score of -0.0922.
With COc1cc(/C=N/O)cc(Br)c1OCC(=O)NCc1ccccc1 the z-score was 0.215.
In the case of COc1ccc(C(C)(C)C)cc1NC(=O)c1c(C)noc1C, the z-score was -0.421.
CCOC(=O)CSc1ccc(S(=O)(=O)N(C)C2CCCCC2)cc1[N+](=O)[O-] gave a z-score of -0.248.
CCn1nnnc1Oc1ccc(Cl)cc1 showed a z-score of -0.341.
COC(=O)/C=C/C(=O)NCc1ccco1 was tested, and the z-score was -0.16.
CCC(=O)N1CCCn2c1nc1ccccc12 gave a z-score of 0.129.
Work on COc1ccc(NC(=O)CCOc2ccccc2)cc1 yielded a z-score of 0.0744.
With CCOC(=O)C1CCN(S(=O)(=O)c2c(C)n(C)c(=O)n(C)c2=O)CC1 the z-score was 0.114.
COc1ccccc1CNC(=O)CCCn1c(=O)c2ccccc2n(CC(=O)NC2CCCC2)c1=O showed a z-score of -0.214.
In the case of O=C(Nc1cnn(Cc2ccc(Cl)c(Cl)c2)c1)C12CC3CC(CC(C3)C1)C2, the z-score was -0.135.
Molecule Cc1cccc[n+]1CC(=O)/C=C1\N(C)c2ccccc2C1(C)C has a z-score of -0.11.
Molecule CC(C)OCCCNC(=O)CN1C(=O)CC(C)(C)S(=O)(=O)c2ccccc21 has a z-score of -0.731.
O=C(c1ccc([N+](=O)[O-])cc1)N(C1=NCCCCS1)c1ccccc1 was tested, and the z-score was 0.0339.
With COc1ccc2c(c1)OC(c1ccccc1)(C(F)(F)F)NC2=O (stereo not drawn) the z-score was -0.406.
Cc1ccccc1S(=O)(=O)Nc1nc2ccccc2nc1NCCO was tested, and the z-score was 0.725.
COc1cc(OC)cc(C(=O)NCCC(=O)NCCc2ccc(OC)c(OC)c2)c1 gave a z-score of -0.893.
CC(C)(C)NS(=O)(=O)c1ccc(CCC(=O)Nc2ccc3c(c2)OCCO3)cc1 gave a z-score of -0.0964.
For COC(=O)c1cccc(NC(=O)/C=C/c2ccc3c(c2)OCO3)c1, the z-score was -0.32.
In the case of Oc1cc2c(cc1CN1CCN(c3cccc(C(F)(F)F)c3)CC1)CCC2, the z-score was -0.0251.
O=C(COc1ccc(S(=O)(=O)N2CCCC2)cc1Cl)NC1CCCC1 was tested, and the z-score was -0.0129.
For Cc1sc(NC(=O)CSc2nnc(-c3ccc(F)cc3)o2)c(C#N)c1C, the z-score was -0.213.
Work on O=C(Nc1ccc(F)cc1)c1sccc1SCc1cccc(C(F)(F)F)c1 yielded a z-score of -0.0682.
With Cc1ccc(OCC(=O)NN2C(=O)c3ccccc3C2=O)c(C)c1 the z-score was -0.11.
For O=C(CCN1C(=O)C2C3C=CC(C3)C2C1=O)NCc1cccnc1 (stereo not drawn), the z-score was 0.0149.
Cc1onc(-c2ccccc2Cl)c1C(=O)Nc1ccc(-c2nnc3n2CCCCC3)cc1 gave a z-score of -0.361.
COc1ccccc1C(=O)NC(=S)N1CCCc2ccccc21 was tested, and the z-score was -0.0293.
Work on C/C(=N/Nc1ccc(C(=O)O)cc1)c1ccc(O)c(O)c1O yielded a z-score of -0.383.
For CN1C(=S)SC(/[N+]([O-])=C\c2ccc(Cl)cc2)C1(C)C (stereo not drawn), the z-score was -0.365.
Work on CC(C)Cn1cnc2c1c(=O)n(CC(O)c1ccccc1)c(=O)n2CC(C)C (stereo not drawn) yielded a z-score of -0.206.
O=C(N1CCOCC1)N1CCCN(C(=O)N2CCOCC2)CC1 showed a z-score of -0.237.
Work on C/C(Cc1ccccc1)=N\NC(=O)c1ccc(F)cc1 yielded a z-score of 0.49.
CC(C)c1ccc2c(c1)C(=O)NC(C)(C)C2 gave a z-score of -0.156.
COc1ccccc1CCNC(=O)CCSc1nc(-c2ccco2)cc(C(F)(F)F)n1 gave a z-score of -0.294.
For O=C(CSc1nnc(Nc2ccccc2)s1)NCc1cccs1, the z-score was -0.304.
Molecule CCCN(CCC)C(=O)c1ccccc1C(=O)N(CCC)CCC has a z-score of -0.328.
In the case of CCOC(=O)N1CCN(C(=O)C2CCN(S(=O)(=O)c3ccc(C)cc3)CC2)CC1, the z-score was -0.0746.
In the case of CN(/N=C/c1c[nH]c2ccccc12)c1cnn(-c2ccc(F)c(Cl)c2)c(=O)c1Cl, the z-score was -0.0271.
Work on CCNc1nc(Oc2ccccc2)nc(OC(C)C(=O)OCC)n1 (stereo not drawn) yielded a z-score of -0.197.
COc1cccc(S(=O)(=O)Nc2cccnc2)c1 showed a z-score of 0.144.
With CC(=O)Nc1ccc(C(=O)CSc2cc(C)c3cccc(C)c3n2)cc1 the z-score was -0.182.
In the case of O=C(CCn1c(=O)oc2ccccc21)N1CCN(c2ccccc2F)CC1, the z-score was 0.462.
COCCn1c(CCC(=O)O)nc2c1c(=O)[nH]c(=O)n2CC(C)C was tested, and the z-score was 0.385.
For CC(C)NC(=O)/C(=C\c1cccc([N+](=O)[O-])c1)NC(=O)c1ccccc1, the z-score was -0.0665.
Molecule CCOC(=O)C1CCCN(c2nc(C)nc3c2oc2ccccc23)C1 (stereo not drawn) has a z-score of -0.412.
Molecule CC(=O)c1ccc(C(C)(C)c2ccc(C(C)=O)s2)s1 has a z-score of -0.351.
With Oc1[nH]c2ccccc2c1N=Nc1ccc(C(F)(F)F)cn1 the z-score was -0.0662.
Molecule C=CCNCCCCOc1ccccc1-c1ccccc1 has a z-score of 0.293.
C=CCn1c(COc2ccc(F)cc2)nnc1SCC(=O)N1CC(=O)Nc2ccccc21 gave a z-score of -0.202.
